The other results are listed elsewhere or left out. Antibody binding of pooled human sera (four to six donors per pool; dilution not stated) to peptides of the Trypanosoma cruzi antigen TSSA on microarrays. Quantile-normalised fluorescence in arbitrary units, mean of duplicate arrays; higher = more binding. No active / inactive call. The uninfected pools are read here as the healthy donors of the same country. The strongest signals lie near the top of the scale (about 60,000).

The experiment deals with pooled sera of chronic Chagas disease patients, Argentina. The experiment can be described thus: antibody binding signal (normalised fluorescence) (arbitrary fluorescence units); higher = stronger serum antibody binding to peptide. The protocol:
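Microarray of 15-residue peptides over residues 30-55 of Trypanosoma cruzi TSSAII, each with 1 to 10 substitutions at naturally variable positions, probed with one serum pool per country.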
Turning to TISTPPSGTDKKPAA, the antibody binding signal was 39400. Turning to TPPSGTENKAAAGET, the antibody binding signal turned out to be 43200. The result for SGTDKKTAAGGTPSQ reads 1450. Sequence SGTENKPAAGETPSP registered an antibody binding signal of 44900. In turn, GTEKKPAAGGTPSPS gave an antibody binding signal of 2420.

Consider SGTDNKTAAGEAPSP, for which the antibody binding signal came out at 277.

TEKKPAAGEAPSPSG: the antibody binding signal is 1040. The result for TDNKPATGGAPSQPG reads 2150; that for PPSGTDKKTATGGAP, 7530; that for TEKKTAAGGAPSPPG, 685. The result for TDNKTATGGTPSQPG reads 403; that for SGTENKTATGGTPSP, 29400; that for PSGTEKKTATGGAPS, 10200. The result for DNKPAAGGAPSQPGA reads 258; that for GTENKTATGEAPSPS, 26700. Sequence GKDKKAAAGGTPSQS gave an antibody binding signal of 211. The result for STPPSGTDNKAATGG reads 48800. The result for SGKENKTATGEAPSP reads 14800. The result for GKDNKPATGEAPSPP reads 44200. As to PPSGKENKAAAGEAP, the antibody binding signal amounted to 6410. The result for PSGKEKKPAAGEAPS reads 10800; that for SGTDNKTATGGAPSQ, 905; that for STPPSGKDNKPATGG, 40900. The result for GKEKKPATGGTPSQP reads 2400; that for GKDNKTATGETPSPS, 4610; that for EKKAAAGGTPSQPGA, 432. The result for TISTPPSGKDKKTAT reads 17900; that for GKDKKPATGGTPSPP, 613; that for SGKDKKTATGETPSP, 454. The sequence GKDNKTAAGGAPSQS displayed an antibody binding signal of 311. The result for DKKTAAGEAPSQSGA reads 661; that for TISTPPSGKDKKAAT, 20600. The result for KTAAGEAPSQPGASS reads 6650; that for NKTAAGETPSPPGAS, 257.

In turn, SGTDKKAAAGETPSQ showed an antibody binding signal of 319. The result for TPPSGTENKPATGET reads 48300. In turn, TPPSGTEKKAAAGGA had an antibody binding signal of 35000. The result for GKDKKTATGGAPSQS reads 1090; that for DKKTAAGGTPSQPGA, 664; that for GTENKPAAGEAPSPS, 46000.

(Values after the supplement of paper PMC10441789.)
